These results are taken from the supplement of paper PMC12632987.

B1: traf2_out_11_131_662 (protein)
chain: MDAVAMAESVAERVAERLALAATASPAERTRIARHSLDSIEALAEYLKSHVDKMTKEDIERAAKILRAAADAVLAADPAVAAEAAEVRKAIEELLKAAEE
B2: traf2_out_18_3_1913 (protein)
chain: SEEERKEISEKIDEIVDEATAKAREALDRGAAEHPEFKAEFERLRADLEAGAGPFGILDALAELFREAGDEEEAEEIEKFLREKRKELQELVDKYEELLK
B3: traf2_out_18_167_1867 (protein)
chain: SSELEEKYNEKSDKLVELSEIRRTLRLALEALKESRELARKIIEEALKKLPDSEVLKEALEKFETLSDEEIRAFLESTAEQLQKEMNKAYKELEKLRKEL
B4: traf2_out_20_38_2017 (protein)
chain: SEEEEEEEKEEKLIEHAKEAYDEAEKWVEELKAAGKTVEEIAEEAKALIRELLTAHGLEEEAEELIADVDRVLDSPDAERLIVRILARARTLVFQKELQK
B5: traf2_out_16_62_1470 (protein)
chain: EEEKKKLEEKADELIDTQAELRAAVTRFRLGEDVEGALATIAALAKKYGPTFQALLDAMRAALADPATHDEALAKADELAVEARTQLGKEALKAEEERKK
B6: traf2_out_18_117_1791 (protein)
chain: SEREELIERLEEIAERLGRAASELGTAVLENYDKLTPEEKSAAMDVLADLTAVRRRALELIHRIRTEDVPVEEARRELEELEKEAEAAIARAEARIAAIK
B7: traf2_out_14_17_1298 (protein)
chain: SVLEKLKEILELAKELLEEFPELRLSLTRLVRLAESAIVLAEMYEEDPSYKPLAIEGVRQLLREARELAEELEERSEEGREKAEEIARRAEEIIKELEEE
B8: traf2_out_17_162_1568 (protein)
chain: EELKKKLEELKKELEELKKELEEFKKKLPELPKMSYEELTDLLVEVSELKRRALELAEELKKLGKELGSEELEKLVKEAEEIAEELQRIANEIYKEIEKK
B9: traf2_out_16_177_1449 (protein)
chain: ELEKVMDRLVILSELKRAALLLVEGKEEEAEEELKEARELAEEAGDEEALEKLKEIEELAKENTPEAKKRLKELARELQKEAGKLAEEAEKLILERAKKE
B10: traf2_out_17_35_1753 (protein)
chain: MTPIEKERKIASELADEILAEVDKRNAEMEKILAETGDKQAVADYVKAYLAKHGETGELVDTLEEVLATKDDEELMATARAVVRRAAGRLMGPKYAERLK
B11: traf2_out_11_169_837 (protein)
chain: EEREKNRKINDFALELNDEAKKKLKEFAKELAKKAGLDVEEIDKIFEENKGKSFSYIAGKLIEYFKKKGKEDEAKAVEEKYEELKEEVNKKATAFIKELE
B12: traf2_out_18_167_1872 (protein)
chain: SAELKKKREELTDELVRYSTIRRALLLILEALKRSREEARRLLEEYVEKYPDSEVLREALEVFETKSDEEFRKFLEEKAEELQKEANEKYKELEELEKEE
B13: traf2_out_19_16_1968 (protein)
chain: MEEELERIRRELDEIERRVRELEKYFEENKETLTREELSDLLVELSELKRRAQELRERLLELEGVDEEERERLIRRAEEIIERAQRLMNEVVEKYLELLK
B14: traf2_out_3_77_2277 (protein)
chain: SSEAEAAAAALDEATTEAIASLAVLAINDPANAAKYREMAAKLHRAVAIAKEAGAEKEFLPLVKKLKEALDALNKGDKAAEAEIKKLLKEIEKKAEELKK
B15: traf2_out_18_117_1778 (protein)
chain: SRREELIERLKELAERLEEAASRLGKVFLENYEKLTPEEKSEIMDVLAELTEVRREAQLLIIKIENGEIPVEEAEERLKELEKRAEKAIEKAEKRIKEIE
B16: traf2_out_17_162_1491 (protein)
chain: SELEERKKELEKKLEELEKKLKELKKKLEKLEELSKEELTDLLVEVSELKREARELAEELKKLKEETGDPELEKLIKKAEELAEEAQKIANKIYKKLEEK
B17: traf2_out_17_162_1605 (protein)
chain: AELEATLAALEALLAELEAELKRLKEKLKRIKELSKEELSDLLVEASEARRRAREALEELERLRDRLPPELYAALTARFQALADEFQRIANKFYEELEKK
B18: traf2_out_11_155_746 (protein)
chain: EKRLKLLQEMNDKIMELFDKARKEADAIVEEAAKKHPEHAEKLKKLKEETKGFSYRSYILSYIEKFEELGLKEEAAKLKKLLEETQKKANEIVQKTEKEL
B19: traf2_out_11_104_633 (protein)
chain: LTREQAREFNDFAMAKEDEARAVAAALAAALAAAGETEAAARLNAALAHPGAGISTFRNLIEDLLPTLSPEAAAQARAAIERLEALQKEVSKKLNELEKK
B20: traf2_out_17_178_1734 (protein)
chain: SKEEILKEISELADELLDVTRKAMEELKAILEKEGVLTPELRARLDEVAKTGNLYAFEEVADEAIALSSKKEEVTALKEETVAKMRELNKKIQEAVEKLE
B21: traf2_out_15_180_1330 (protein)
chain: MTEEELKRRIALASEAADRVQDHLAALLAAHPELTPEERAALRALARSVLTLYWNGEWEEAEAAVAAFEARVDPRTAAVARELAAFTREVVEAAKAELAA
B22: traf2_out_17_178_1666 (protein)
chain: TKEEKRKEISEATDKLIDLAEEAAARLLEIARREGFWSPEELAEIEAARRRGSASMVRALMERAIPKSPSAAELAALLAEFDAKVRELSKKIAEAYEKYE
B23: traf2_out_18_3_1939 (protein)
chain: KEEELKKVSEEIDKIIDEVTKKAKESLKELKKEHPEFKERAEKLEKDLEAGAGPFGILEELAELYKEAGDEKKAKEIEEFLKKKKKELQKLVDEYEKLRK
B24: traf2_out_17_162_1618 (protein)
chain: MSIEEKLEEFKKLLEELRKEKEELEEKLKNIEKLSKEELTDLLVEASEARRKALEAIEELKKLKDEIPEEEYEKLVKEFEELAEKFQEIANKFYKELEKK
B25: traf2_out_8_174_2565 (protein)
chain: GELENLKKAANVGLEFEKKIEELKKEIEELRKKSLEEALKYAEEKGKELKEELEKKKEEAKKTESPETQKLIERELNSAKQRVDNLIEGLKLRVAAEKAA
B26: traf2_out_19_16_1970 (protein)
chain: SEEELRRLRERLERIERRVEELEEYFEKNRETLTREEVSDLLVEASELKREAQRIREELEERTDWDPEEVGRLRERAERVEERAQRLMNKLVEKYLELLK
B27: traf2_out_12_187_964 (protein)
chain: SVEEELRRAAEEGVRRARRALERAAPEDPRFRELLEKLERLEELYREDPSIASDVLVAASAILRAVRLHEAGAPAEEIDAAVEEADRILDEALAEAEARR
B28: traf2_out_20_3_2131 (protein)
chain: EELEKKLEEELEKAIKLLKEAAKLADKETAKKLEELIKRLKESRSLPYEDRLVVLSEIRREVLRLAEKARKEGKEELAKVLEEAAEALNKAMNLLMKIIE
B29: traf2_out_6_3_2511 (protein)
chain: EEEEERRRNEEALREAAEMSLETIKRAADHGLKELKKAVEDPNATESDFLAYASAINTLIRIAEEHAKLHPEEKAEAEAWIKEVKAELAKLEAEWKKKTA

Over roughly 1,800 sequences, “median log2 fold change of GCK-ALFA target abundance (FLAG IP / Myc IP barcode read proportion)” has its median near 0.14; the lowest 2% begin near -0.84. The list shows a part of the results.

For the experiment, the target named is T1, TRAF2, Q12933.
T1 chain: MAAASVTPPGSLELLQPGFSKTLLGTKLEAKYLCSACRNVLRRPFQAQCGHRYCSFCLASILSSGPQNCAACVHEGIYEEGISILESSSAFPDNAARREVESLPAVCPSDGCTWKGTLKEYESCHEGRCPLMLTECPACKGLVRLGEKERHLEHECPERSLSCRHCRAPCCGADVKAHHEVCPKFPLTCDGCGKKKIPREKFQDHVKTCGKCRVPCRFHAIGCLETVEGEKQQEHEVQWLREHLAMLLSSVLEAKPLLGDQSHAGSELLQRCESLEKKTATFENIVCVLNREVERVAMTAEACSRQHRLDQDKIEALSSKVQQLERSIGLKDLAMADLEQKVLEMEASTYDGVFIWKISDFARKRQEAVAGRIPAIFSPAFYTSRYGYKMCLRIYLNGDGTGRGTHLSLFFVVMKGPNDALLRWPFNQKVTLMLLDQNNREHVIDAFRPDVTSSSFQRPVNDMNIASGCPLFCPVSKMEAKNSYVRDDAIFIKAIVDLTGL
Kind of experiment: median log2 fold change of GCK-ALFA target abundance (FLAG IP / Myc IP barcode read proportion) (log2 ratio); each designed protein is fused to an ALFA-tag nanobody in HEK293 cells to bring the named protein to FLAG-tagged glucokinase (GCK); Myc marks an untargeted standard; higher = target protein stabilised (more abundant). The conditions noted are these: target protein: 3xFLAG-MCP-GCK-ALFA reporter; HEK293 landing pad (RPLP). A digest of the protocol:
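An ALFA-nanobody-fused binder library was recombined into HEK293 landing-pad cells and induced with 2 μg mL^−1 doxycycline. Cells were transfected with a plasmid expressing a FLAG-tagged target and a Myc-tagged standard. After 48 h, lysates underwent anti-FLAG and anti-Myc immunoprecipitation, and circular RNA barcodes were reverse transcribed, amplified and sequenced. Target abundance is the per-binder median log2 ratio of FLAG to Myc barcode read proportions. Barcodes needed ≥10^−7 proportion in both replicates, binders ≥3 barcodes per replicate, and a 10^−6 pseudocount was added; the two replicates were pooled.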
B1: the “median log2 fold change” value is 0.243.

As for B2, the “median log2 fold change” value is 0.136.

As to B3, the “median log2 fold change” value is 0.166.

On to B4, for which the “median log2 fold change” value was found to be 0.224.

Regarding B5, the “median log2 fold change” value was determined as 0.0651.

For the molecule B6, the “median log2 fold change” value amounted to 0.133.

Take B7: the “median log2 fold change” value was found to be 0.339.

On to B8, for which the “median log2 fold change” value came to 0.8.

As to B9, the “median log2 fold change” value is -0.242.

With B10, the “median log2 fold change” value is 0.184.

Turning to B11, the “median log2 fold change” value was -0.217.

Consider B12, for which the “median log2 fold change” value stood at 0.106.

B13: the “median log2 fold change” value was 0.109.

For the molecule B14, the “median log2 fold change” value turned out to be 0.291.

Consider B15, for which the “median log2 fold change” value was 0.313.

As for B16, the “median log2 fold change” value was -0.178.

In the case of B17, the “median log2 fold change” value is -0.112.

For B18, the “median log2 fold change” value is -0.0198.

With B19, the “median log2 fold change” value worked out at 0.281.

Take B20: the “median log2 fold change” value came out at 0.411.

With B21, the “median log2 fold change” value was determined as 0.153.

For the molecule B22, the “median log2 fold change” value is 0.000244.

As for B23, the “median log2 fold change” value came to 0.169.

On to B24, for which the “median log2 fold change” value was found to be 0.0164.

On to B25, for which the “median log2 fold change” value was found to be 0.224.

As to B26, the “median log2 fold change” value came out at 0.0168.

B27: the “median log2 fold change” value was found to be 0.0885.

On to B28, for which the “median log2 fold change” value was found to be 0.0668.

Consider B29, for which the “median log2 fold change” value was -0.0468.
